# Source: PubChem BioAssay AID602310 (National Center for Advancing Translational Sciences (NCATS), 2012)
# The campaign covered roughly 410,000 compounds. About 310 (0.076%) were called active. Inconclusive means that the source gave no clear call. Such entries were picked first, then a sample of the others. The call rests on the fitted dose curve; in most records, active means well fitted curve in the direction sought with a large enough effect; inconclusive means small, poorly fitted or top-dose-only effect; inactive means flat fitted curve, though single readings scatter. Where the call is inconclusive, the potency comes from a doubtful curve fit.
# Molecular target: DNA dC->dU-editing enzyme APOBEC-3G (Homo sapiens) (UniProt Q9HC16)
# Experiment: qHTS for Inhibitors of Vif-A3G Interactions: qHTS; further: nearly all actives have a fitted effect of over 60% in size;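 on activity, negative = active: hits raise eYFP signal because A3G escapes Vif-driven loss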
# Details: HeLa A3G-eYFP + Vif (tagged APOBEC3G with the HIV-1 protein that degrades it), YFP fluorescence, overnight; series mostly up to 46.1 µM; activity, negative = active: at the top concentration
# How it was run: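 Read-out is eYFP fluorescence (Ex 488/Em 500-530) from Vif-expressing HeLa A3G-eYFP cells; more signal means A3G escaped Vif-mediated degradation. Cells plated overnight, compound pinned in, incubated overnight at 37 deg C.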
# On the % scale 0 is the no-effect control and ±100 the full control effect; potency means the concentration at half of the fitted maximal effect; tags describe the fitted curve by direction and shape.
# UniProt Q9HC16, sequence (Q9HC16 whole entry, looked up): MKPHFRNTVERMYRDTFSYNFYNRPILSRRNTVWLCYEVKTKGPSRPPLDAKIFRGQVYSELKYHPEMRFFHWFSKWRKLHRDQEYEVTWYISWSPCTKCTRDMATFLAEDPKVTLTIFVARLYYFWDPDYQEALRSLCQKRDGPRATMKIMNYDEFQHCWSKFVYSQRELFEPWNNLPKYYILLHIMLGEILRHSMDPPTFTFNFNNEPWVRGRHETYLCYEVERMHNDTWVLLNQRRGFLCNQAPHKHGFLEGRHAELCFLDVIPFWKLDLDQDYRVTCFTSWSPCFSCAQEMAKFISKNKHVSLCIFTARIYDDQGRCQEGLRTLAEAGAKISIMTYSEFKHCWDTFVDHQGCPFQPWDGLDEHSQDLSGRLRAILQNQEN
SMILES,Potency,"activity, negative = active"
Cc1ccccc1/C=C/c1nc2ccccc2c(=O)[nH]1,"inconclusive: 5.62 µM [inhibitor, full curve]",
Cc1ccc2nc(/C(C#N)=C\c3ccc(OC(=O)c4cccs4)cc3)[nH]c2c1,"inconclusive: 2.82 µM [inhibitor, full curve, poor fit]",
CS(=O)(=O)c1ccc2nc(N)sc2c1,,inactive: -1.21%
CN(C)c1ccc(/C=C/c2sc3ccccc3[n+]2CCCCBr)cc1,"inconclusive: 31.6 µM [inhibitor, single point]",
NS(=O)(=O)c1ccc(CNC(=O)/C=C/c2ccco2)cc1,,inactive: 8.54%
Fc1ccc(CNc2nc3ccccc3n3nnnc23)cc1,"inconclusive: 11.2 µM [inhibitor, single point]",
O=C(NNC1=C(C(=O)C(F)(F)F)CCC1)c1cccc(O)c1,,inactive: 2.68%
CCSc1ncc(Cl)c(C(=O)N2CCN(c3ccccc3OC)CC2)n1,"inconclusive: 4.47 µM [inhibitor, partial curve]",
CCOCCCNC(=O)c1ccc(-n2c(-c3ccccc3)cc3c2CCCC3)cc1,"inconclusive: 25.1 µM [inhibitor, single point]",
C=C(C)c1ccc(C(C)(C)NC(=O)N(Cc2ccccc2)Cc2ccco2)cc1,,inactive: -4.04%
CCCCOc1ccc2c(c1)/C(=C(\C(Cl)=C(Cl)Cl)[N+](=O)[O-])N2,"inconclusive: 25.1 µM [inhibitor, single point]",
NC(=O)CC(NC(=O)c1ccc(Br)cc1)c1ccc(NC2CCCCCC2)c([N+](=O)[O-])c1 (centres undefined),"inconclusive: 20 µM [inhibitor, single point]",
Cc1ccc(O)c(-c2cc(-c3ccccc3F)[nH]n2)c1,"inconclusive: 35.5 µM [inhibitor, single point]",
COc1ccc(N2CC(C(=O)Nc3nnc(SCC(=O)NCC4CCCO4)s3)CC2=O)cc1 (centres undefined),,inactive: 1.42%
CN(C)c1ccc(C=C2SC(=S)N(Cc3ccco3)C2=O)cc1,"inconclusive: 3.16 µM [inhibitor, full curve, poor fit]",
CC(=O)Oc1ccc(N2C(=O)C3C(C2=O)C(C(=O)c2ccc(Cl)cc2)N2CCCC32)cc1 (centres undefined),"inconclusive: 22.4 µM [inhibitor, single point]",
Cc1nc(N)sc1-c1csc(Nc2cccc(O)c2)n1,"inconclusive: 35.5 µM [inhibitor, single point]",
COc1ccc(NC(=O)CN2C(=O)CC(c3ccc(C)c(C)c3)=Nc3ccccc32)cc1OC,,inactive: -1.66%
COc1ccc(C2Oc3ccccc3C3=C2C(c2cccs2)n2ncnc2N3)cc1 (centres undefined),"inconclusive: 2.51 µM [inhibitor, full curve, poor fit]",
